Experimental data from the supplement of paper PMC8728848.
Some of the results follow.

How the values were obtained:
Test in all cases: glycan array binding signal (z-score within array); higher = stronger binding
Settings in all cases: glycan notation: IUPAC condensed, linker removed
[1] = molecular target: GalNAc(b1-4)GlcNAc(b1-2)Man(a1-3)[GalNAc(b1-4)GlcNAc(b1-2)Man(a1-6)]Man(b1-4)GlcNAc(b1-4)GlcNAc
How it was run: (§1)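 Arrays were curated from the Consortium for Functional Glycomics database, 3228 in total, and kept only where the protein sequence was available. Binding is expressed as a within-array Z-score. This score was averaged across arrays of the same protein sequence at different concentrations or buffers and across linkers, and negative values can be read as non-binding.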

GalNAc(b1-6)GalNAc = molecular target: GalNAc(b1-6)GalNAc
How it was run: as §1

Glc(a1-4)Glc = molecular target: Glc(a1-4)Glc
How it was run: as §1

[2] = molecular target: Glc(a1-4)Glc(a1-4)Glc(a1-4)Glc
How it was run: as §1

Glc(a1-6)Glc(a1-6)Glc = molecular target: Glc(a1-6)Glc(a1-6)Glc
How it was run: as §1

[3] = molecular target: Glc(a1-6)Glc(a1-6)Glc(a1-6)Glc
How it was run: as §1

Glc(b1-4)Glc = molecular target: Glc(b1-4)Glc
How it was run: as §1

Glc(b1-6)Glc = molecular target: Glc(b1-6)Glc
How it was run: as §1

GlcA(b1-3)Gal = molecular target: GlcA(b1-3)Gal
How it was run: as §1

GlcA(b1-3)GlcNAc = molecular target: GlcA(b1-3)GlcNAc
How it was run: as §1

GlcA(b1-6)Gal = molecular target: GlcA(b1-6)Gal
How it was run: as §1

[4] = molecular target: GlcNAc(a1-3)Gal(b1-4)GlcNAc
How it was run: as §1

[5] = molecular target: GlcNAc(a1-4)Gal(b1-3)GlcNAc
How it was run: as §1

[6] = molecular target: GlcNAc(a1-4)Gal(b1-4)GalNAc
How it was run: as §1

[7] = molecular target: GlcNAc(a1-4)Gal(b1-4)GlcNAc
How it was run: as §1

[8] = molecular target: GlcNAc(a1-4)Gal(b1-4)GlcNAc(b1-3)Gal(b1-4)Glc
How it was run: as §1

[9] = molecular target: GlcNAc(a1-4)Gal(b1-4)GlcNAc(b1-3)Gal(b1-4)GlcNAc
How it was run: as §1

[10] = molecular target: GlcNAc(a1-4)Gal(b1-4)GlcNAc(b1-3)Gal(b1-4)GlcNAc(b1-3)Gal(b1-4)GlcNAc
How it was run: as §1

[11] = molecular target: GlcNAc(a1-4)Gal(b1-4)GlcNAc(b1-3)Gal(b1-4)[Fuc(a1-3)]GlcNAc(b1-3)Gal(b1-4)[Fuc(a1-3)]GlcNAc
How it was run: as §1

[12] = molecular target: GlcNAc(a1-6)Gal(b1-4)GlcNAc
How it was run: as §1

[13] = molecular target: GlcNAc(b1-2)Gal(b1-3)GalNAc
How it was run: as §1

[14] = molecular target: GlcNAc(b1-2)Man(a1-3)[GlcNAc(b1-2)Man(a1-6)]Man(b1-4)GlcNAc(b1-4)GlcNAc
How it was run: as §1

[15] = molecular target: GlcNAc(b1-2)Man(a1-3)[GlcNAc(b1-2)Man(a1-6)]Man(b1-4)GlcNAc(b1-4)[Fuc(a1-6)]GlcNAc
How it was run: as §1

[16] = molecular target: GlcNAc(b1-2)Man(a1-3)[GlcNAc(b1-4)][GlcNAc(b1-2)Man(a1-6)]Man(b1-4)GlcNAc(b1-4)GlcNAc
How it was run: as §1

[17] = molecular target: GlcNAc(b1-2)[GlcNAc(b1-4)]Man(a1-3)[GlcNAc(b1-2)Man(a1-6)]Man(b1-4)GlcNAc(b1-4)GlcNAc
How it was run: as §1

[18] = molecular target: GlcNAc(b1-2)[GlcNAc(b1-4)]Man(a1-3)[GlcNAc(b1-4)][GlcNAc(b1-2)Man(a1-6)]Man(b1-4)GlcNAc(b1-4)GlcNAc
How it was run: as §1

[19] = molecular target: GlcNAc(b1-2)[GlcNAc(b1-4)]Man(a1-3)[GlcNAc(b1-4)][GlcNAc(b1-2)[GlcNAc(b1-6)]Man(a1-6)]Man(b1-4)GlcNAc(b1-4)GlcNAc
How it was run: as §1

[20] = molecular target: GlcNAc(b1-2)[GlcNAc(b1-6)]Man(a1-6)[GlcNAc(b1-2)Man(a1-3)]Man(b1-4)GlcNAc(b1-4)GlcNAc
How it was run: as §1

[21] = molecular target: GlcNAc(b1-2)[GlcNAc(b1-6)]Man(a1-6)[GlcNAc(b1-2)Man(a1-3)][GlcNAc(b1-4)]Man(b1-4)GlcNAc(b1-4)GlcNAc
How it was run: as §1

GlcNAc(b1-3)Gal = molecular target: GlcNAc(b1-3)Gal
How it was run: as §1

[22] = molecular target: GlcNAc(b1-3)Gal(b1-3)GalNAc
How it was run: as §1

GlcNAc(b1-3)Gal(b1-4)Glc = molecular target: GlcNAc(b1-3)Gal(b1-4)Glc
How it was run: as §1

[23] = molecular target: GlcNAc(b1-3)Gal(b1-4)GlcNAc
How it was run: as §1

[24] = molecular target: GlcNAc(b1-3)Gal(b1-4)GlcNAc(b1-3)Gal(b1-4)GlcNAc
How it was run: as §1

GlcNAc(b1-3)GalNAc = molecular target: GlcNAc(b1-3)GalNAc
How it was run: as §1

GlcNAc(b1-3)Man = molecular target: GlcNAc(b1-3)Man
How it was run: as §1

[25] = molecular target: GlcNAc(b1-3)[GlcNAc(b1-4)][GlcNAc(b1-6)]GlcNAc
How it was run: as §1

[26] = molecular target: GlcNAc(b1-3)[GlcNAc(b1-6)]Gal(b1-4)GlcNAc
How it was run: as §1

[27] = molecular target: GlcNAc(b1-3)[GlcNAc(b1-6)]GalNAc
How it was run: as §1

[28] = molecular target: GlcNAc(b1-4)Gal(b1-4)GlcNAc
How it was run: as §1

GlcNAc(b1-4)GlcNAc = molecular target: GlcNAc(b1-4)GlcNAc
How it was run: as §1

[29] = molecular target: GlcNAc(b1-4)GlcNAc(b1-4)GlcNAc
How it was run: as §1

[30] = molecular target: GlcNAc(b1-4)GlcNAc(b1-4)GlcNAc(b1-4)GlcNAc(b1-4)GlcNAc
How it was run: as §1

[31] = molecular target: GlcNAc(b1-4)GlcNAc(b1-4)GlcNAc(b1-4)GlcNAc(b1-4)GlcNAc(b1-4)GlcNAc
How it was run: as §1

[32] = molecular target: GlcNAc(b1-4)[GlcNAc(b1-6)]GalNAc
How it was run: as §1

B1: Eosinophil cationic protein (ECP) (Homo sapiens), P12724 (protein)
chain: MVPKLFTSQICLLLLLGLMGVEGSLHARPPQFTRAQWFAIQHISLNPPRCTIAMRAINNYRWRCKNQNTFLRTTFANVVNVCGNQSIRCPHNRTLNNCHRSRFRVPLLHCDLINPGAQNISNCTYADRPGRRFYVVACDNRDPRDSPRYPVVPVHLDTTI
glycan array binding signal (z-score) [1]: 0.146
glycan array binding signal (z-score) (GalNAc(b1-6)GalNAc): -0.334
glycan array binding signal (z-score) (Glc(a1-4)Glc): -0.382
glycan array binding signal (z-score) [2]: -0.327
glycan array binding signal (z-score) (Glc(a1-6)Glc(a1-6)Glc): -0.359
glycan array binding signal (z-score) [3]: -0.185
glycan array binding signal (z-score) (Glc(b1-4)Glc): 0.024
glycan array binding signal (z-score) (Glc(b1-6)Glc): -0.124
glycan array binding signal (z-score) (GlcA(b1-3)Gal): -0.238
glycan array binding signal (z-score) (GlcA(b1-3)GlcNAc): -0.366
glycan array binding signal (z-score) (GlcA(b1-6)Gal): -0.347
glycan array binding signal (z-score) [4]: -0.358
glycan array binding signal (z-score) [5]: -0.221
glycan array binding signal (z-score) [6]: 0.205
glycan array binding signal (z-score) [7]: -0.091
glycan array binding signal (z-score) [8]: 0.59
glycan array binding signal (z-score) [9]: 8.33
glycan array binding signal (z-score) [10]: 0.357
glycan array binding signal (z-score) [11]: 4.18
glycan array binding signal (z-score) [12]: 3.15
glycan array binding signal (z-score) [13]: -0.158
glycan array binding signal (z-score) [14]: -0.403
glycan array binding signal (z-score) [15]: 0.236
glycan array binding signal (z-score) [16]: -0.202
glycan array binding signal (z-score) [17]: -0.197
glycan array binding signal (z-score) [18]: 0.079
glycan array binding signal (z-score) [19]: 0.22
glycan array binding signal (z-score) [20]: -0.218
glycan array binding signal (z-score) [21]: -0.355
glycan array binding signal (z-score) (GlcNAc(b1-3)Gal): -0.238
glycan array binding signal (z-score) [22]: 0.129
glycan array binding signal (z-score) (GlcNAc(b1-3)Gal(b1-4)Glc): -0.422
glycan array binding signal (z-score) [23]: -0.132
glycan array binding signal (z-score) [24]: -0.384
glycan array binding signal (z-score) (GlcNAc(b1-3)GalNAc): -0.223
glycan array binding signal (z-score) (GlcNAc(b1-3)Man): 0.173
glycan array binding signal (z-score) [25]: -0.322
glycan array binding signal (z-score) [26]: -0.213
glycan array binding signal (z-score) [27]: -0.275
glycan array binding signal (z-score) [28]: 0.075
glycan array binding signal (z-score) (GlcNAc(b1-4)GlcNAc): -0.153
glycan array binding signal (z-score) [29]: -0.422
glycan array binding signal (z-score) [30]: -0.116
glycan array binding signal (z-score) [31]: -0.013
glycan array binding signal (z-score) [32]: -0.215
